{"source": "PubChem BioAssay AID686979", "about": "(National Center for Advancing Translational Sciences (NCATS), 2013)", "note": "The campaign covered roughly 420,000 compounds. About 50,000 (12%) were called active. The shares of active, inactive and inconclusive entries below differ from those in the screen. The call rests on the fitted dose curve; in most records, active means well fitted inhibition curve with a large enough effect; inconclusive means small, poorly fitted or top-dose-only effect; inactive means flat fitted curve, though single readings scatter. No potency is given beside an inconclusive call; the fits are too rough. On the % scale 0 is the no-effect control and ±100 the full control effect; potency means the concentration at half of the fitted maximal effect; tags describe the fitted curve by direction and shape.", "data": [{"experiment": "qHTS for Inhibitors of human tyrosyl-DNA phosphodiesterase 1 (TDP1): qHTS in cells in presence of CPT; further: nearly all actives have a fitted effect of over 55% in size", "conditions": "chicken DT40 Tdp1-/-;hTDP1 cells + 20 nM CPT, ATP luminescence, 48 h; activity change, negative = growth inhibition: at 46.2 µM (top of the series) unless noted", "outline": "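Chicken DT40 Tdp1-/- cells complemented with human TDP1, 400 cells/well, exposed to compounds plus 20 nM camptothecin for at least 48 h at 37 C; viability read as ATP content by CellTiter-Glo luminescence.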", "values": [{"smiles": "CCOc1ccc(NC(=O)c2cc(C)nc3c2c(C)nn3-c2ccc(C)cc2)cc1", "Potency": "inconclusive [inhibitor, single point]"}, {"smiles": "CCCN1C(=O)/C(=C/c2ccc(C)o2)SC1=Nc1ccc(OC)cc1", "Potency": "active: 9.2 µM"}, {"smiles": "N#C/C(=C\\c1cccnc1)C(=O)Nc1ccccc1[N+](=O)[O-]", "Potency": "inconclusive [inhibitor, single point]"}, {"smiles": "O=C(CN1CCN(S(=O)(=O)c2cccc(F)c2)CC1)NCC1(N2CCOCC2)CCCCC1", "Potency": "inactive"}, {"smiles": "O=C1COc2ccc(C(=O)CSc3nnc(Cc4cccs4)n3-c3ccccc3)cc2N1", "Potency": "inconclusive [inhibitor, partial curve, poor fit]"}, {"smiles": "CCOc1ccc(C(=O)NCC(c2cccs2)S(=O)(=O)c2ccccc2)cc1", "note": "(stereo not given)", "Potency": "active: 29.1 µM"}, {"smiles": "O=C(NCCN1CCOCC1)NC1(C(F)(F)F)Oc2ccc(Cl)cc2O1", "note": "(stereo not given)", "Potency": "inconclusive [inhibitor, single point]"}, {"smiles": "COc1cc(C2C(C#N)=C(N)Oc3c2ccc2ccccc32)ccc1OCC(=O)Nc1cccc(C)c1", "note": "(stereo not given)", "Potency": "inconclusive [inhibitor, single point]"}, {"smiles": "COc1cccc(CN2C(=NC(=O)C3CCCO3)SC3CS(=O)(=O)CC32)c1", "note": "(stereo not given)", "Potency": "inactive"}, {"smiles": "COc1cc(NC(=O)CSc2nc3ccccc3n2-c2ccccc2)c(C)cc1[N+](=O)[O-]", "Potency": "inconclusive [inhibitor, single point]"}, {"smiles": "CC(=O)Nc1cccc(-c2ccnc3c2CC(C)(C(=O)Nc2ccc(C(C)C)cc2)O3)c1", "note": "(stereo not given)", "Potency": "inconclusive [inhibitor, single point]"}, {"smiles": "O=C(Cc1cccs1)Nc1nc(-c2ccccc2)cs1", "Potency": "active: 23.1 µM"}, {"smiles": "CCc1nc(C)cn1S(=O)(=O)c1ccc(Cl)c(Cl)c1Cl", "Potency": "active: 18.4 µM"}, {"smiles": "CCc1nc2c(OCc3ccc(Cl)cc3Cl)cccn2c1N(C)C(C)=O", "Potency": "inconclusive [inhibitor, single point]"}, {"smiles": "CC1(Cc2ccccc2C#N)C(=O)Nc2ccc(-c3ccc4[nH]ccc4c3)cc21", "note": "(stereo not given)", "Potency": "active: 1.46 µM"}, {"smiles": "CCc1cc2c(=O)[nH]cnc2s1", "Potency": "inactive"}, {"smiles": "O=C(c1cc(C2CC2)nn1-c1ccccc1)N1CCN(Cc2c(F)cccc2Cl)CC1", "Potency": "inconclusive [inhibitor, single point]"}, {"smiles": "COCCNC(=O)CN(Cc1ccccc1)C(=O)CCC(=O)Nc1nccs1", "Potency": "inactive"}, {"smiles": "CCc1ccc(N2C(=O)Nc3ccc(Br)cc3C2(O)C(=O)NCCN(C)C)cc1", "note": "(stereo not given)", "Potency": "inactive"}, {"smiles": "CCOc1ccc(-n2ccnc2SCC(=O)Nc2nnc(CC)s2)cc1", "Potency": "inconclusive [inhibitor, single point]"}, {"smiles": "CCSc1nc2ccc(N3C(=O)C4C5C=CC(C5)C4C3=O)cc2s1", "note": "(stereo not given)", "Potency": "inconclusive [inhibitor, single point]"}, {"smiles": "COc1ccc(NC(=O)CCNC(=O)c2ccccc2Cl)cc1S(=O)(=O)N1CCCCC1", "Potency": "inactive"}, {"smiles": "CCc1nnc(NC(=O)C=C(C)C)s1", "Potency": "inconclusive [inhibitor, partial curve]"}, {"smiles": "Cc1ccccc1CNC(=O)CSc1nnc(C)c2c(C)n(-c3ccccc3)nc12", "Potency": "inconclusive [inhibitor, full curve, poor fit]"}, {"smiles": "CC1(c2ccccc2Cl)NC(=O)N(CC(=O)N2c3ccccc3NC(=O)C2(C)C)C1=O", "note": "(stereo not given)", "Potency": "inactive"}, {"smiles": "O=C(c1ccc(NS(=O)(=O)c2ccc(F)cc2)cc1)N1CCCCCC1", "Potency": "inconclusive [inhibitor, single point]"}, {"smiles": "O=C(c1ccc2c(=O)n3c(nc2c1)CCCCC3)N1CCN(c2ccc([N+](=O)[O-])cc2)CC1", "Potency": "inconclusive [inhibitor, single point]"}, {"smiles": "O=C(c1ccc2c(=O)n3c(nc2c1)CCC3)N1CCCSC1=Nc1ccccc1", "Potency": "inactive"}, {"smiles": "Fc1ccccc1OCCCCCCN1CCCC1", "Potency": "inconclusive [inhibitor, single point]"}, {"smiles": "Cc1ccn2c(Nc3ccc4c(c3)OCCO4)c(-c3ccccc3O)nc2c1", "Potency": "inconclusive [inhibitor, single point]"}, {"smiles": "COc1ccccc1CNC(=O)c1c(N)n(CCCN2CCOCC2)c2nc3ccccc3nc12", "Potency": "inconclusive [inhibitor, single point]"}, {"smiles": "COc1ccccc1C(=O)Nc1ccc(OCc2nnc3c4ccccc4c(C)nn23)cc1", "Potency": "inconclusive [inhibitor, single point]"}, {"smiles": "CCCCOc1ccc(C2C(C(=O)Nc3ccccc3OC)=C(C)Nc3nnnn32)cc1OC", "note": "(stereo not given)", "Potency": "inconclusive [inhibitor, single point]"}, {"smiles": "CC(=O)N1CCCc2cc(S(=O)(=O)N3CCC(C(=O)Nc4ccc(C)cc4Cl)CC3)ccc21", "Potency": "active: 14.6 µM"}, {"smiles": "CCCCc1nnc(NC(=O)c2cccc(S(=O)(=O)N3CCN(C)CC3)c2)s1", "Potency": "inactive"}, {"smiles": "Cc1cc(=O)[nH]c(SCC(=O)C23CC4CC(CC(C4)C2)C3)c1C#N", "Potency": "active: 8.2 µM"}, {"smiles": "COc1ccc(CN(C)C(C)C(=O)Nc2ccc(S(=O)(=O)N3CCCCC3)cc2)c(OC)c1", "note": "(stereo not given)", "Potency": "inconclusive [inhibitor, single point]"}, {"smiles": "COc1ccc(C2CC(=O)c3c(O)cc(O)cc3O2)c(CC=C(C)C)c1OC", "note": "(stereo not given)", "Potency": "active: 23.1 µM"}, {"smiles": "O=C1N=C2SCCN2/C1=C\\c1ccc(Cl)cc1", "Potency": "inactive"}, {"smiles": "N#CC1=C(S)N(c2ccc(F)cc2)C(c2cccs2)NC1=O", "note": "(stereo not given)", "Potency": "active: 8.2 µM"}, {"smiles": "COc1ccccc1N1CCN(C(CNC(=O)C(=O)NCc2cccnc2)c2cccnc2)CC1", "note": "(stereo not given)", "Potency": "inconclusive [inhibitor, single point]"}, {"smiles": "O=C(NCCc1csc(-c2ccc(C(F)(F)F)cc2)n1)c1cccs1", "Potency": "inconclusive [inhibitor, single point]"}, {"smiles": "O=C(N/N=C/C=C/c1ccco1)c1ccccc1Cl", "Potency": "inconclusive [inhibitor, partial curve]"}, {"smiles": "CCn1c(C)nc2cc(S(=O)(=O)N3CCCCC3)ccc21", "activity change, negative = growth inhibition": "inconclusive: -30.8% [inhibitor]"}, {"smiles": "CC(C)(C)NC(=O)C(c1ccccc1)n1c(=O)c(-c2cc3ccccc3[nH]2)nc2ccccc21", "note": "(stereo not given)", "Potency": "inconclusive [inhibitor, single point]"}]}]}
